Structures can show the parent of a compound that is named as a salt. In all, about 1,900 compounds were measured (“cell viability of compound + 1 nM pemigatinib relative to pemigatinib-only (DMSO) wells”: median about 0.95, lowest 2% from about 0.22 on). The list shows a part of the results.
tested on: PDC-DUC18828; experiment: cell viability of compound + 1 nM pemigatinib relative to pemigatinib-only (DMSO) wells (fraction); PDC-DUC18828 is a patient-derived cholangiocarcinoma cell line; higher = less growth inhibition; conditions: first compound 1 µM; pemigatinib concentration 1 nM; 72 h
Protocol: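 Selleck Bioactive library screen in the patient-derived FGFR2 fusion-positive ICC cell line PDC-DUC18828 (500 cells/well). Each compound was tested at 1 uM with 1 nM pemigatinib, in triplicate, for 72 h. Viability was read by CellTiter-Glo and normalised to plate DMSO controls. Value is the paper's averaged normalised viability.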

| SMILES | cell viability |
| --- | --- |
| Cc1cc(Cn2cnc3c2CC(C(=O)O)N(C(=O)C(c2ccccc2)c2ccccc2)C3)ccc1N(C)C (configuration not stated) + CCN1C(=O)N(c2c(F)c(OC)cc(OC)c2F)Cc2cnc3[nH]c(CN4CCOCC4)cc3c21 [pemigatinib] | 0.951 |
| O=c1c(O)c(-c2cc(O)c(O)c(O)c2)oc2cc(O)cc(O)c12 [Myricetin] + CCN1C(=O)N(c2c(F)c(OC)cc(OC)c2F)Cc2cnc3[nH]c(CN4CCOCC4)cc3c21 [pemigatinib] | 0.958 |
| Cc1ccc(S(=O)(=O)NC(=O)NN2CC3CCCC3C2)cc1 (configuration not stated) [Gliclazide] + CCN1C(=O)N(c2c(F)c(OC)cc(OC)c2F)Cc2cnc3[nH]c(CN4CCOCC4)cc3c21 [pemigatinib] | 0.953 |
| CCCC[C@@H](C=O)NC(=O)[C@H](CC(C)C)NC(=O)OCc1ccccc1 [Calpeptin] + CCN1C(=O)N(c2c(F)c(OC)cc(OC)c2F)Cc2cnc3[nH]c(CN4CCOCC4)cc3c21 [pemigatinib] | 1.01 |
| Cc1ccc(NC(=O)c2ccc(CN3CCN(C)CC3)cc2)cc1Nc1nc(-c2cccnc2)cs1 [Masitinib (AB1010)] + CCN1C(=O)N(c2c(F)c(OC)cc(OC)c2F)Cc2cnc3[nH]c(CN4CCOCC4)cc3c21 [pemigatinib] | 1.11 |
| COc1nc(C)nc(Cl)c1NC1=NCCN1 [Moxonidine] + CCN1C(=O)N(c2c(F)c(OC)cc(OC)c2F)Cc2cnc3[nH]c(CN4CCOCC4)cc3c21 [pemigatinib] | 1.02 |
| O=C(Nc1cc(C(F)(F)F)ccc1N1CCCCC1)c1ccncc1 + CCN1C(=O)N(c2c(F)c(OC)cc(OC)c2F)Cc2cnc3[nH]c(CN4CCOCC4)cc3c21 [pemigatinib] | 1.01 |
| COc1ccc2[nH]cc(CCNC(C)=O)c2c1 [Melatonin] + CCN1C(=O)N(c2c(F)c(OC)cc(OC)c2F)Cc2cnc3[nH]c(CN4CCOCC4)cc3c21 [pemigatinib] | 1 |
| O=C([O-])c1ccccc1O.[Na+] [Sodium salicylate] + CCN1C(=O)N(c2c(F)c(OC)cc(OC)c2F)Cc2cnc3[nH]c(CN4CCOCC4)cc3c21 [pemigatinib] | 0.963 |
| Cc1ccc(C(=O)c2cc(O)c(O)c([N+](=O)[O-])c2)cc1 [Tolcapone] + CCN1C(=O)N(c2c(F)c(OC)cc(OC)c2F)Cc2cnc3[nH]c(CN4CCOCC4)cc3c21 [pemigatinib] | 0.967 |
| O=C(N/N=C/c1ccc(O)c(O)c1)c1cc2ccccc2cc1O [Dynasore] + CCN1C(=O)N(c2c(F)c(OC)cc(OC)c2F)Cc2cnc3[nH]c(CN4CCOCC4)cc3c21 [pemigatinib] | 0.955 |
| C=CC[C@@H]1/C=C(\C)C[C@H](C)C[C@H](OC)[C@H]2O[C@@](O)(C(=O)C(=O)N3CCCC[C@H]3C(=O)O[C@H](/C(C)=C/[C@@H]3CC[C@@H](O)[C@H](OC)C3)[C@H](C)[C@@H](O)CC1=O)[C@H](C)C[C@@H]2OC [Tacrolimus (FK506)] + CCN1C(=O)N(c2c(F)c(OC)cc(OC)c2F)Cc2cnc3[nH]c(CN4CCOCC4)cc3c21 [pemigatinib] | 0.893 |
| O=C(O)CCNc1cc(N2CCc3ccccc3CC2)nc(-c2ccccn2)n1 + CCN1C(=O)N(c2c(F)c(OC)cc(OC)c2F)Cc2cnc3[nH]c(CN4CCOCC4)cc3c21 [pemigatinib] | 0.931 |
| COc1ccc(COc2ccc(Cc3cnc(N)nc3N)cc2OC)cc1 + CCN1C(=O)N(c2c(F)c(OC)cc(OC)c2F)Cc2cnc3[nH]c(CN4CCOCC4)cc3c21 [pemigatinib] | 0.965 |
| Cc1cc([N+](=O)[O-])ccc1NS(=O)(=O)c1cc(Cl)ccc1Cl + CCN1C(=O)N(c2c(F)c(OC)cc(OC)c2F)Cc2cnc3[nH]c(CN4CCOCC4)cc3c21 [pemigatinib] | 0.912 |
| CC(=O)O/N=C1\C(=O)N(Cc2cc(Cl)ccc2Cl)c2ccc(Cl)cc21 + CCN1C(=O)N(c2c(F)c(OC)cc(OC)c2F)Cc2cnc3[nH]c(CN4CCOCC4)cc3c21 [pemigatinib] | 0.938 |
| O=C(Cc1cccc(OC(F)(F)F)c1)Nc1ccc(CCCCc2nnc(NC(=O)Cc3ccccn3)s2)nn1 + CCN1C(=O)N(c2c(F)c(OC)cc(OC)c2F)Cc2cnc3[nH]c(CN4CCOCC4)cc3c21 [pemigatinib] | 0.833 |
| Cc1ncc([N+](=O)[O-])n1CCO [Metronidazole] + CCN1C(=O)N(c2c(F)c(OC)cc(OC)c2F)Cc2cnc3[nH]c(CN4CCOCC4)cc3c21 [pemigatinib] | 1.04 |
| CCN(CC)CC#CCOC(=O)C(O)(c1ccccc1)C1CCCCC1 (configuration not stated) [Oxybutynin chloride] + CCN1C(=O)N(c2c(F)c(OC)cc(OC)c2F)Cc2cnc3[nH]c(CN4CCOCC4)cc3c21 [pemigatinib] | 0.875 |

| SMILES | cell viability |
| --- | --- |
| CCN(CC)CC#CCOC(=O)C(O)(c1ccccc1)C1CCCCC1 (configuration not stated) [Oxybutynin] + CCN1C(=O)N(c2c(F)c(OC)cc(OC)c2F)Cc2cnc3[nH]c(CN4CCOCC4)cc3c21 [pemigatinib] | 0.993 |
| CCN(Cc1ccncc1)C(=O)C(CO)c1ccccc1 (configuration not stated) [Tropicamide] + CCN1C(=O)N(c2c(F)c(OC)cc(OC)c2F)Cc2cnc3[nH]c(CN4CCOCC4)cc3c21 [pemigatinib] | 0.957 |
| CO[C@@H]1[C@@H](OC(N)=O)[C@@H](O)[C@H](Oc2ccc3c(O)c(NC(=O)c4ccc(O)c(CC=C(C)C)c4)c(=O)oc3c2C)OC1(C)C [Novobiocin Sodium] + CCN1C(=O)N(c2c(F)c(OC)cc(OC)c2F)Cc2cnc3[nH]c(CN4CCOCC4)cc3c21 [pemigatinib] | 0.992 |
| CCN1CCN(C(=O)N[C@@H](C(=O)N[C@@H]2C(=O)N3[C@@H]2SC(C)(C)[C@@H]3C(=O)O)c2ccccc2)C(=O)C1=O [Piperacillin Sodium] + CCN1C(=O)N(c2c(F)c(OC)cc(OC)c2F)Cc2cnc3[nH]c(CN4CCOCC4)cc3c21 [pemigatinib] | 0.943 |
| NC(=O)c1cnc2[nH]ccc2c1N[C@@H]1[C@@H]2CC3C[C@H]1C[C@@](O)(C3)C2 + CCN1C(=O)N(c2c(F)c(OC)cc(OC)c2F)Cc2cnc3[nH]c(CN4CCOCC4)cc3c21 [pemigatinib] | 0.926 |
| CN1CCCC(n2nc(Cc3ccc(Cl)cc3)c3ccccc3c2=O)CC1 (configuration not stated) [Azelastine HCl] + CCN1C(=O)N(c2c(F)c(OC)cc(OC)c2F)Cc2cnc3[nH]c(CN4CCOCC4)cc3c21 [pemigatinib] | 0.98 |
| CCCC(=O)Nc1ncnc2c1ncn2[C@@H]1O[C@@H]2COP(=O)(O)O[C@H]2[C@H]1OC(=O)CCC [Dibutyryl-cAMP (Bucladesine)] + CCN1C(=O)N(c2c(F)c(OC)cc(OC)c2F)Cc2cnc3[nH]c(CN4CCOCC4)cc3c21 [pemigatinib] | 0.931 |
| CN(C)CCC[C@@]1(c2ccc(F)cc2)OCc2cc(C#N)ccc21 [Escitalopram Oxalate] + CCN1C(=O)N(c2c(F)c(OC)cc(OC)c2F)Cc2cnc3[nH]c(CN4CCOCC4)cc3c21 [pemigatinib] | 0.913 |
| CC1=CC(=O)NS(=O)(=O)O1 [Acesulfame Potassium] + CCN1C(=O)N(c2c(F)c(OC)cc(OC)c2F)Cc2cnc3[nH]c(CN4CCOCC4)cc3c21 [pemigatinib] | 0.924 |
| NC(=O)N/N=C/c1ccc([N+](=O)[O-])o1 [Nitrofural] + CCN1C(=O)N(c2c(F)c(OC)cc(OC)c2F)Cc2cnc3[nH]c(CN4CCOCC4)cc3c21 [pemigatinib] | 0.978 |
| O=C(O[C@H]1CN2CCC1CC2)N1CCc2ccccc2[C@@H]1c1ccccc1 [Solifenacin succinate] + CCN1C(=O)N(c2c(F)c(OC)cc(OC)c2F)Cc2cnc3[nH]c(CN4CCOCC4)cc3c21 [pemigatinib] | 0.927 |
| O=S(=O)(c1ccccc1)c1cnc2c(N3CCNCC3)cccc2c1 + CCN1C(=O)N(c2c(F)c(OC)cc(OC)c2F)Cc2cnc3[nH]c(CN4CCOCC4)cc3c21 [pemigatinib] | 0.937 |
| CC(C)C[C@H](NC(=O)[C@H](CCc1ccccc1)NC(=O)CN1CCOCC1)C(=O)N[C@@H](Cc1ccccc1)C(=O)N[C@@H](CC(C)C)C(=O)[C@@]1(C)CO1 [Carfilzomib (PR-171)] + CCN1C(=O)N(c2c(F)c(OC)cc(OC)c2F)Cc2cnc3[nH]c(CN4CCOCC4)cc3c21 [pemigatinib] | 0.0221 |
| CC(=O)OCOC(=O)CN(CC(=O)OCOC(C)=O)c1ccccc1OCCOc1ccccc1N(CC(=O)OCOC(C)=O)CC(=O)OCOC(C)=O + CCN1C(=O)N(c2c(F)c(OC)cc(OC)c2F)Cc2cnc3[nH]c(CN4CCOCC4)cc3c21 [pemigatinib] | 0.921 |
| CC(C)(C#N)c1ccc(N2C(=O)OCc3cnc4ccc(-c5cnc6ccccc6c5)cc4c32)cc1 + CCN1C(=O)N(c2c(F)c(OC)cc(OC)c2F)Cc2cnc3[nH]c(CN4CCOCC4)cc3c21 [pemigatinib] | 0.95 |
| CC(=O)Oc1cccc2c1C(=O)c1c(OC(C)=O)cc(C(=O)O)cc1C2=O [Diacerein] + CCN1C(=O)N(c2c(F)c(OC)cc(OC)c2F)Cc2cnc3[nH]c(CN4CCOCC4)cc3c21 [pemigatinib] | 0.976 |
| CCN(CC)Cc1ccc2cc(COC(=O)Nc3ccc(C(=O)NO)cc3)ccc2c1 [Givinostat (ITF2357)] + CCN1C(=O)N(c2c(F)c(OC)cc(OC)c2F)Cc2cnc3[nH]c(CN4CCOCC4)cc3c21 [pemigatinib] | 0.422 |
| N=C(N)NC(=N)N1CCOCC1 [Moroxydine HCl] + CCN1C(=O)N(c2c(F)c(OC)cc(OC)c2F)Cc2cnc3[nH]c(CN4CCOCC4)cc3c21 [pemigatinib] | 0.941 |
